Consider 77 molecules from ChEMBL document CHEMBL1201862, “PubChem BioAssay data set” (2004).

Molecules are shown by their SMILES.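 These data come from cells grown in 96-well plates and exposed to compound for 48 hours at five concentrations. Here, GI50 denotes the concentration required for 50% inhibition of growth.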 Activity calls are given as the source filed them. No stated cut-off is given here; in the data, active = GI50 up to about 1.1 µM and inactive = higher.

This assay relates to NCI-H322M. Description: DTP human tumour cell line panel, 48 h.
Usually GI50 stands for the concentration at which growth is held to half of that of the control. On to `O=C(CCc1ccc(O)c(O)c1)NCCc1ccccc1`, for which the GI50 was inactive: > 100 µM. Take `CN(C)CCNC(=O)c1cccc2nc3c(ccc4ccccc43)nc12`: the GI50 is inactive: 3.02 µM.

`Fc1ccc(NC(=S)SCc2ccc3c(c2)OCO3)cc1F`: the GI50 is inactive: 20.1 µM. In the case of `Nn1c(-c2cccc(Cl)c2)nc2ccccc2c1=O`, the GI50 was inactive: > 100 µM. Under `CCCCOC(=O)C(NC(C(=O)OCCCC)c1cc(C(C)(C)C)c(O)c(C(C)(C)C)c1)c1cc(C(C)(C)C)c(O)c(C(C)(C)C)c1` (configuration not stated) stands inactive: > 100 µM; under `CC(=O)CC(=O)OC1CC(C)CCC1C(C)C` (configuration not stated), inactive: 93.8 µM.

In the case of `CC(=O)NC(CCCN(Cc1ccccc1)C(=O)NCCCl)C(=O)NCc1ccccc1` (configuration not stated), the GI50 was inactive: > 100 µM.

For the molecule `Clc1ccc(SC(/C=C/NNC2=NN=C(c3ccccc3)C(c3ccccc3)N2)c2ccccc2)cc1` (configuration not stated), the GI50 was inactive: 31.2 µM. As to `COc1ccc(N[S+]([O-])c2ccc(Cl)cc2)cc1` (configuration not stated), the GI50 was inactive: 59.4 µM. The value for `Cc1ccc([S+]([O-])/C=C(\NC(=O)OCc2ccccc2)C(F)(F)F)cc1` (configuration not stated) was inactive: 45.7 µM; that for `COC(=O)C1=C([C@H]2COC(C)(C)O2)[C@H]2C[C@@H]1[C@@H]1OC(C)(C)O[C@@H]12` was inactive: > 100 µM; that for `O=C(O)CSc1nnc(-c2ccco2)[nH]1` was inactive: > 100 µM. In the case of `CN(C(=O)C12C3C4C1C1C2C3C41C(=O)N(C)C(C)(C)C)C(C)(C)C` (configuration not stated), the GI50 is inactive: > 50 µM. Consider `COc1ccc(/N=N/C(=NNC(=O)c2ccc(C)cc2)c2ccc(N(C)C)cc2)cc1`, for which the GI50 is inactive: > 62.1 µM. Under `CC(=O)Oc1cccc2c(/C=N/NC(N)=S)ncc(C)c12` stands active: 0.522 µM; under `C[C@]12CC[C@@H]3c4cc(Br)c(O)c(Br)c4CC[C@H]3[C@@H]1CCC2=O`, inactive: 19.2 µM.

Take `CCOC(=O)[C@H]1Nc2ccc([N+](=O)[O-])cc2C2c3ccccc3CC21` (some centres not stated): the GI50 is inactive: 29.6 µM. The value for `CCOC(=O)C1=C(Nc2ccc(Br)cc2)OC/C1=N\NC(=O)c1ccccc1O` was inactive: 24.9 µM. The value for `CC(CCC#N)(CCC#N)C(=O)CC(O)(C(F)(F)F)C(F)(F)F` was inactive: 20.8 µM; that for `O=S1(=O)c2cc(S(=O)(=O)n3ccnc3)ccc2NC2=NCCCN21` was inactive: 70.5 µM; that for `C/C(=N/OC(=O)c1cccc2c(=O)c3ccccc3[nH]c12)[C@H]1CC[C@H]2[C@@H]3CCC4=C/C(=N/OC(=O)c5cccc6c(=O)c7ccccc7[nH]c56)CC[C@]4(C)[C@H]3CC[C@]12C` was inactive: 19.4 µM. The value for `O=C1NC(=O)C(c2c[nH]c3cc(Br)ccc23)=C1c1cn(C(c2ccccc2)(c2ccccc2)c2ccccc2)cn1` was inactive: 18 µM; that for `CCCCCCCCCCCCOc1ccc(/C=C/C2=[N+](CCCl)CCO2)cc1` was inactive: 16.6 µM; that for `N#Cc1cn(-c2c3ccccc3nc3ccccc23)c(=O)[nH]c1=O` was inactive: 9.29 µM.

As to `Cc1cc(-n2nnc(C(=O)O)c2-c2ccccc2)c2ccc(Cl)cc2n1`, the GI50 was inactive: > 100 µM. The value for `COc1ccc(OC)c2sc(N3C(=O)/C(=C/c4cccc([N+](=O)[O-])c4)N=C3c3ccccc3)nc12` was inactive: > 100 µM; that for `O=C1N/C(=N/N=C/C(O)C(O)C(O)C(O)CO)N/C1=C\c1cccs1` (configuration not stated) was inactive: > 100 µM; that for `CC(C)(C)OC(=O)N1C(=O)C2CCCC21` (configuration not stated) was inactive: > 100 µM. The value for `O=C(Nc1ccc2[nH]c(C(=O)N3CC(CCl)c4ccc([N+](=O)[O-])cc43)cc2c1)c1cc2ccccc2o1` (configuration not stated) was inactive: > 1100 µM; that for `COc1cc(Cc2nccc3cc(OC)c(OC)cc23)c(C(C)=O)cc1OC` was inactive: 56.2 µM. With `O=S(=O)(SC1=NCCN1)c1cccc2ccccc12`, the GI50 is inactive: 58.3 µM. Take `CNc1cc(OCc2ccccc2)c(OC)cc1C(=O)N1CCC[C@H]1CO`: the GI50 was inactive: > 100 µM. Turning to `Cc1cc(Br)ccc1NC1=CC(=O)C(=O)c2ccccc21`, the GI50 was inactive: 59.7 µM. Under `Cc1c(/N=N/c2ccccc2)c(-c2ccccc2)n(C2OC(CO)C(O)C(O)C2O)c(=S)c1C#N` (configuration not stated) stands inactive: 5.16 µM.

For `O=c1[nH]c(Br)nc2[nH]nnc12`, the GI50 is inactive: > 100 µM.

`CCOC(=O)c1[nH]c2ccccc2c1C(=O)C[C@H](NC(=O)C(F)(F)F)C(=O)OC`: the GI50 is inactive: > 100 µM.

Take `COc1cc(/C=c2/c3ccccc3n3c2cc(-c2ccccc2)[n+]3C)cc(OC)c1OC`: the GI50 was inactive: 9.16 µM.

As to `C/C1=C\CC[C@@]2(C)O[C@@H]2[C@H]2OC(=O)C(C)C2C[C@H]1O` (some centres not stated), the GI50 was inactive: > 100 µM. Consider `Cc1cccc(NC(=O)/C=C/c2ccc(N(CCC#N)CCC#N)cc2C)c1`, for which the GI50 was inactive: > 100 µM.

On to `CCOC(=O)CC(NC(=O)c1nc[nH]c1[N+](=O)[O-])C(=O)OCC` (configuration not stated), for which the GI50 was inactive: > 100 µM. In the case of `C=C(C)C12OC3(c4ccccc4)OC1C1C4OC4(CO)C(O)C4(O)C(=O)C(C)=CC4C1(O3)C(C)C2OC(=O)/C=C/C=C/c1ccccc1` (configuration not stated), the GI50 was active: 0.228 µM.

As for `O=C(CC(c1ccccc1)C(C(=O)c1ccncc1)C(CC(=O)c1ccncc1)c1ccccc1)c1ccncc1` (configuration not stated), the GI50 is inactive: > 100 µM. Consider `CCO/N=C(/N)c1ncn(Cc2ccccc2)c1NCC(OCC)OCC`, for which the GI50 was inactive: > 100 µM. Consider `CC1=C(C#N)C(=O)CC(c2ccc(Cl)cc2)N(C)N1` (configuration not stated), for which the GI50 was inactive: > 100 µM. In the case of `CC(=O)C1COC(O)C1C` (configuration not stated), the GI50 is inactive: 29.4 µM. As to `N#Cc1c(-c2ccccc2)[nH]c2ccccc2c1=O`, the GI50 is inactive: > 100 µM. In the case of `CCOC(=O)c1c(C)n(Cc2ccc(Cl)cc2Cl)c2c1cc(O)c1[nH]c3c(c12)CCCC3`, the GI50 was inactive: 19 µM.

Consider `O=C(CC1(O)C(=O)Nc2c(Cl)cc(Cl)cc21)c1ccc(Br)cc1` (configuration not stated), for which the GI50 is inactive: 16.3 µM. In the case of `N#CCCNCCN(CCN(C(=O)Nc1ccccc1)c1ccccc1)C(=O)Nc1ccccc1`, the GI50 is inactive: 69.3 µM. Under `O=C(O)C(Cc1ccccc1)N1C(=O)N/C(=C\c2ccc(F)cc2)C1=O` (configuration not stated) stands inactive: 30.8 µM. Under `CC(=O)NC1C(OCc2ccccc2)OC(CO)C(O)C1OC(C)C(=O)NC(C(=O)NC(CCC(=O)NCCCC(=O)Nc1ccc2c(c1)CN1C(=O)c3ccccc3C1=N2)C(N)=O)C(C)C` (configuration not stated) stands inactive: > 100 µM; under `COC(=O)C1=CC2OC13CC1CCC3(C2=O)C1(C)C` (configuration not stated), inactive: 15.8 µM.

For `O=C1NC(=O)C2(CCC(O)C2)c2cc[n+]([O-])cc21` (configuration not stated), the GI50 is inactive: > 100 µM. Under `FC(F)(F)c1ccccc1/C=N/C12CC3CC(CC(C3)C1)C2` stands inactive: > 100 µM; under `CCSc1nn(-c2c3ccccc3nc3ccccc23)c(=S)s1`, inactive: > 100 µM. Under `Cc1cc2c(=O)cc(-c3ccc(C(F)(F)F)cc3)oc2c(C(=O)O)c1C` stands inactive: > 100 µM; under `CC1=C(C(=O)Nc2ccccc2C)C(c2ccc(Cl)cc2)C(C(=O)Nc2ccccc2C)=C(C)N1`, inactive: > 100 µM; under `O=C1CCC(=O)N1n1c(Cc2ccc(Cl)cc2)n[nH]c1=O`, inactive: > 100 µM.

For `Nc1ccc(C(=O)NN2C(=O)C(Cl)C2c2ccccc2Cl)cc1` (configuration not stated), the GI50 is inactive: 15.2 µM. The value for `CC1=CC(=O)CCC2(C)C1CC[C@@H]2OC=O` (some centres not stated) was inactive: > 100 µM; that for `CC1C2CC(CC2(C)O)C1(C)C` (configuration not stated) was inactive: > 100 µM.

Turning to `COc1ccc(COC2CC(OC)OC(C)C2OC(=O)c2ccccc2)cc1` (configuration not stated), the GI50 is inactive: > 100 µM.

As for `COC[C@@H](C[C@H]1O[C@@](O)([C@H](O)[C@@H]2C[C@H](OC)[C@@H](O)CC/C=C(C)/C=C/[C@@H](O[C@@H]3O[C@@H](C)[C@H](OC)[C@@H](O)[C@@H]3O)[C@H](C)/C=C(C)/C=C(C)/C=C(\C)C(=O)O2)[C@H](C)[C@@H](O)[C@H]1C)O[C@H]1C[C@](C)(O)[C@@H](O[C@H]2C[C@@H](OC)[C@H](O)[C@@H](C)O2)C(C)O1` (some centres not stated), the GI50 is inactive: > 100 µM. As for `CCCCCCCCCCC(O)C1CCC(C2CCC(C(O)CCCCC(O)CCCCCC(O)CC3=CC(C)OC3=O)O2)O1` (configuration not stated), the GI50 is inactive: > 25 µM.

Turning to `CCOC(=O)C(O)(NC(=O)c1ccc(F)cc1)C(F)(F)F` (configuration not stated), the GI50 was inactive: > 100 µM. Consider `O=c1[nH]nc(Cc2ccccc2)n1/N=C/c1ccc(/C=N/n2c(Cc3ccccc3)n[nH]c2=O)cc1`, for which the GI50 was inactive: > 100 µM. The value for `O=c1c(-c2ccc3c(c2)OCO3)coc2c3c(ccc12)OCO3` was inactive: 45 µM; that for `CCOC(=O)c1nc2ccccc2n(CC)c1=O` was inactive: > 100 µM. The value for `O=C(O)CCC(=O)OCN1C(=O)C2C3C=CC(C2C1=O)C1C2C(=O)N(COC(=O)CCC(=O)O)C(=O)C2C31` (configuration not stated) was inactive: > 100 µM.

Turning to `CN(C)CC[N+](C)(C)[BH2-]C(O)O`, the GI50 was inactive: > 100 µM. Under `C=C1C(=O)O[C@H]2C3C(=C(C)CC[C@@H]12)C(=O)[C@@H]1OC31C` (some centres not stated) stands inactive: 13 µM; under `CC1OC2=N[C@@H]1C(=O)N[C@@H](C(C)C)C1=N[C@H](C(=O)N[C@@H](C(C)C)C3=N[C@H](C(=O)N[C@@H](C(C)C)C4=N[C@H](C(=O)N[C@H]2C(C)C)C(C)O4)C(C)O3)C(C)O1` (some centres not stated), inactive: > 10 µM. Consider `OC[C@H]1N[C@H](CO)[C@@H](O)[C@H]1O`, for which the GI50 is inactive: > 100 µM. With `COc1cc2c(c(OC)c1)[C@H](C)N(Cc1ccccc1)C(C)C2` (some centres not stated), the GI50 was inactive: 87.7 µM.

As to `COC(=O)CCC(C)[C@H]1CCC2C3C(C[C@H](OC(C)=O)[C@@]21C)[C@@]1(C)CCC2(C[C@H]1C[C@H]3OC(C)=O)OOC1(CCC(C)CC1)OO2` (some centres not stated), the GI50 is inactive: > 100 µM. In the case of `COc1cc2cc(C(=O)N3CC(CCl)c4ccc(N(C)C)cc43)[nH]c2c(OC)c1OC` (configuration not stated), the GI50 is active: 0.17 µM. Turning to `C1CN1c1nc(N2CC2)nc(N2CC2)n1`, the GI50 is inactive: 18.9 µM.
